The supplement of paper PMC4604168 (melanoma cell lines)
The other results are listed elsewhere or left out. Most values come without repeats; read them as rough.

What was measured:
Assay in all cases: cell count relative to DMSO control; melanoma cells; higher = more viable cells
Conditions in all cases: library dose: standard library concentration; 72 h
G361 = tested on: G361
IPC-298 = tested on: IPC-298
IST-MEL1 = tested on: IST-MEL1
LB2518-MEL = tested on: LB2518-MEL
LOXIMVI = tested on: LOXIMVI
MEL-HO = tested on: MEL-HO
MZ2-MEL = tested on: MZ2-MEL
MeWo = tested on: MeWo
RPMI7951 = tested on: RPMI7951
RVH-421 = tested on: RVH-421
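Further: cells treated in 1,536-well plates, then fixed and DAPI-stained, with nuclei counted from automated high-throughput microscope images.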

SMILES | cell count (G361) [%] | cell count (IPC-298) [%] | cell count (IST-MEL1) [%] | cell count (LB2518-MEL) [%] | cell count (LOXIMVI) [%] | cell count (MEL-HO) [%] | cell count (MZ2-MEL) [%] | cell count (MeWo) [%] | cell count (RPMI7951) [%] | cell count (RVH-421) [%]
Cn1cc(C2=C(c3cn(C4CCN(Cc5ccccn5)CC4)c4ccccc34)C(=O)NC2=O)c2ccccc21 [Enzastaurin] + N#Cc1c(O)c2c(-c3ccc(-c4ccccc4O)cc3)csc2[nH]c1=O [A769662] (first compound 4 µM, partner dose 10 µM) | 74.2 | 89 | 83.9 | 54.8 | 97.1 | 89.4 | 109 | 91.9 | 77.4 | 49.6
Cn1cc(C2=C(c3cn(C4CCN(Cc5ccccn5)CC4)c4ccccc34)C(=O)NC2=O)c2ccccc21 [Enzastaurin] + COc1ccc(COc2ccc(Cc3cnc(N)nc3N)cc2OC)cc1 [GW2580] (first compound 4 µM, partner dose 5 µM) | 81.2 | 91.9 | 86.4 | 58.7 | 89.9 | 82.1 | 106 | 91.4 | 61.2 | 63.1
C[As](C)SC[C@H](NC(=O)CC[C@H](N)C(=O)O)C(=O)NCC(=O)O [Darinaparsin] + Nc1cccc2c1CN(C1CCC(=O)NC1=O)C2=O [lenalidomide] (first compound 2 µM, partner dose 5 µM) | 95.7 | 101 | 88.8 | 88.5 | 73.5 | 92.1 | 108 | 81 | 85.9 | 76.4
N.N.[Cl][Pt][Cl] [cisplatin] + OCc1c[nH]c2ccccc12 [Indole-3-carbinol] (first compound 8 µM, partner dose 4 µM) | 103 | 72.2 | 92 | 77.8 | 98.1 | 92.4 | 87 | 85.6 | 105 | 88.4
C[C@]12O[C@H](C[C@]1(O)CO)n1c3ccccc3c3c4c(c5c6ccccc6n2c5c31)CNC4=O [Lestaurtinib] + CS(=O)(=O)c1ccc(C(=O)Nc2ccc(Cl)c(-c3ccccn3)c2)c(Cl)c1 [vismodegib] (first compound 0.02 µM, partner dose 5 µM) | 76.9 | 79 | 106 | 79.4 | 93.7 | 78.2 | 129 | 79.5 | 108 | 96.6
C[As](C)SC[C@H](NC(=O)CC[C@H](N)C(=O)O)C(=O)NCC(=O)O [Darinaparsin] + O=C1NC(=O)/C(=C/c2ccc(-c3ccc(F)cc3O)o2)S1 [AS252424] (first compound 2 µM, partner dose 5 µM) | 72.8 | 91.8 | 109 | 100 | 97.9 | 89.4 | 87 | 82.8 | 96.5 | 128
Cn1cc(C2=C(c3cn(C4CCN(Cc5ccccn5)CC4)c4ccccc34)C(=O)NC2=O)c2ccccc21 [Enzastaurin] + O=C(O)c1ccc(-c2c[nH]c3ncc(-c4ccccc4)cc23)cc1C1CCCC1 [GSK650394] (first compound 4 µM, partner dose 0.8 µM) | 63.1 | 103 | 84.2 | 105 | 98.8 | 78.5 | 98.3 | 90.5 | 61.9 | 63
N.N.[Cl][Pt][Cl] [cisplatin] + Cc1ccc(NC(=O)c2cccc(N(C)C)c2)cc1NC(=O)c1ccc(O)cc1 [ZM336372] (first compound 8 µM, partner dose 10 µM) | 91.9 | 96.7 | 85.4 | 125 | 108 | 86.8 | 107 | 110 | 75.8 | 103
N.N.[Cl][Pt][Cl] [cisplatin] + COc1cc2ncnc(Nc3ccc(Oc4ccccc4)cc3)c2cc1OC [SrcI1] (first compound 8 µM, partner dose 10 µM) | 69.7 | 80.7 | 87.5 | 125 | 75.8 | 83.2 | 90 | 84 | 66.3 | 97.7
C[As](C)SC[C@H](NC(=O)CC[C@H](N)C(=O)O)C(=O)NCC(=O)O [Darinaparsin] + N#Cc1c(O)c2c(-c3ccc(-c4ccccc4O)cc3)csc2[nH]c1=O [A769662] (first compound 2 µM, partner dose 10 µM) | 75.1 | 86.3 | 82.3 | 71.9 | 84.8 | 70 | 88.8 | 74.3 | 64 | 75.1
C[As](C)SC[C@H](NC(=O)CC[C@H](N)C(=O)O)C(=O)NCC(=O)O [Darinaparsin] + COc1cc2c(Oc3ccc4[nH]c(C)cc4c3F)ncnc2cc1OCCCN1CCCC1 [cediranib] (first compound 2 µM, partner dose 2 µM) | 103 | 135 | 130 | 87.4 | 89.2 | 133 | 136 | 75.6 | 90.3 | 102
C[As](C)SC[C@H](NC(=O)CC[C@H](N)C(=O)O)C(=O)NCC(=O)O [Darinaparsin] + c1cc(-c2cnn3cc(-c4ccc(OCCN5CCCCC5)cc4)cnc23)ccn1 [Dorsomorphin] (first compound 2 µM, partner dose 2 µM) | 49.3 | 90 | 84.2 | 58.8 | 83.2 | 86.7 | 69.7 | 59.2 | 56.5 | 106
C[C@]12O[C@H](C[C@]1(O)CO)n1c3ccccc3c3c4c(c5c6ccccc6n2c5c31)CNC4=O [Lestaurtinib] + CC(C)(C)c1cnc(CSc2cnc(NC(=O)C3CCNCC3)s2)o1 [SNS-032] (first compound 0.02 µM, partner dose 0.05 µM) | 70.9 | 98.3 | 107 | 64.3 | 70.6 | 87.3 | 85.7 | 88.8 | 42 | 84.1
C[C@]12O[C@H](C[C@]1(O)CO)n1c3ccccc3c3c4c(c5c6ccccc6n2c5c31)CNC4=O [Lestaurtinib] + CC(=O)c1c(C)c2cnc(Nc3ccc(N4CCNCC4)cn3)nc2n(C2CCCC2)c1=O [palbociclib] (first compound 0.02 µM, partner dose 0.2 µM) | 70.1 | 52.3 | 85.3 | 56.8 | 88.7 | 79.5 | 66.9 | 62 | 75.7 | 78.9
N.N.[Cl][Pt][Cl] [cisplatin] + C/C(O)=C(\C#N)C(=O)Nc1cc(Br)ccc1Br [LFM-A13] (first compound 8 µM, partner dose 10 µM) | 103 | 103 | 90.6 | 90 | 70.9 | 105 | 96.1 | 90.5 | 81.5 | 96.4
C[C@]12O[C@H](C[C@]1(O)CO)n1c3ccccc3c3c4c(c5c6ccccc6n2c5c31)CNC4=O [Lestaurtinib] + COc1cc2c(Oc3ccc4[nH]c(C)cc4c3F)ncnc2cc1OCCCN1CCCC1 [cediranib] (first compound 0.02 µM, partner dose 2 µM) | 80 | 98.5 | 108 | 75.3 | 74.8 | 88.6 | 120 | 83.8 | 48 | 96.3
Cn1cc(C2=C(c3cn(C4CCN(Cc5ccccn5)CC4)c4ccccc34)C(=O)NC2=O)c2ccccc21 [Enzastaurin] + COc1ccc(Cl)c(Nc2nc3ccccc3nc2NS(=O)(=O)c2cccc(NC(=O)C(C)(C)N)c2)c1 [XL147] (first compound 4 µM, partner dose 4 µM) | 69.3 | 88 | 67.8 | 86.7 | 126 | 70.9 | 108 | 104 | 58.1 | 88.3
